Source: PubChem BioAssay (Tox21)
This list was built around the results that the source calls inconclusive (neither active nor inactive); the mix of calls is not that of the screen. For part of these data: Where the call is inconclusive, the potency comes from a doubtful curve fit. Calls of active or inactive are those of the source. Unless noted, calls come from the whole dose curve; as a rule, active = well fitted curve in the direction sought with a large enough effect in the repeat runs; inconclusive = weak or mixed curves; inactive = no such curve, though single readings can be large; an effect the other way counts as inactive or inconclusive.

How the values were obtained:
[1] = qHTS assay to identify small molecule antagonists of the retinoid acid receptor (RAR) signaling pathway - cell viability counter screen (AID 1159551); conditions: C3RL4 cells viability, ATP luminescence (CellTiter-Glo), 6 h; series mostly up to 92.4 µM; note: nearly all actives have a fitted effect of over 35% in size; note: potency is the fitted concentration of half-maximal effect
Summary of the method: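 Luminescent ATP quantitation (CellTiter-Glo) gave cell viability in C3RL4 cells exposed to test chemicals for 6 h at 37 C alongside 1 uM final retinol.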

[2] = qHTS assay to identify small molecule antagonists of the retinoic acid receptor (RAR) signaling pathway (AID 1159552; note: potency is the fitted concentration of half-maximal effect; nearly all actives have a fitted effect of over 50% in size); conditions: C3RL4 RARE luciferase reporter, retinol-stimulated, 6 h; series mostly up to 92.4 µM
Summary of the method: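 Overnight-plated C3RL4 reporter cells get compound, then retinol to 1 uM final; plates sit 6 hr at 37 C, 5% CO2. A luciferase reagent is added and light output recorded after 30 min at room temperature.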

[3] = qHTS assay to identify small molecule antagonists of the estrogen related receptor (ERR) signaling pathway from Tox21 library - cell viability counter screen (AID 1224834); conditions: ERR reporter cells viability, CellTiter-Fluor, 17.5 h; series mostly up to 92.4 µM; note: potency is the fitted concentration of half-maximal effect; nearly all actives have a fitted effect of over 30% in size
Summary of the method: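 Fluorescence from CellTiter-Fluor gives the viability read-out, taken 30 min after reagent addition. Before that, ERR cells seeded 6 h earlier were incubated with compounds for 17.5 h at 37 C.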

[4] = qHTS assay to identify small molecule agonists of the constitutive androstane receptor (CAR) signaling pathway - cell viability counter screen (AID 1224836); conditions: HepG2-CYP2B6-hCAR viability, CellTiter-Fluor, 23 h, PK11195 added to every well; series mostly up to 92.4 µM; note: potency is the fitted concentration of half-maximal effect; nearly all actives have a fitted effect of over 45% in size
Summary of the method: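 Fluorescence from CellTiter-Fluor indicates live cells after 23 h exposure. The human hepatoma line expresses hCAR and a CYP2B6-2.2kb reporter. Incubation medium contains 0.75 uM PK11195 (final).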

[5] = qHTS assay to identify small molecule antagonists of the estrogen related receptor signaling pathway with the pleiotropic PPARgamma coactivator (PGC) from Tox21 10K library (AID 1224841; call rule not given here; note: potency is the fitted concentration of half-maximal effect; actives are mostly falling curves and most rising ones were filed inactive; nearly all actives have a fitted effect of over 50% in size); conditions: PGC/ERR reporter cell line, ONE-Glo luciferase, 18 h; series mostly up to 92.4 µM
Summary of the method: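 PGC/ERR cell line, 2,000 cells/well; 6 h pre-incubation 37 C/5% CO2; compounds (DMSO) pinned in; 18 h, 37 C; One-Glo, 30 min RT; luminescence.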

[6] = qHTS assay to identify small molecule agonists of the hypoxia (HIF-1) signaling pathway - cell viability counter screen (AID 1224844; calls by dose curve; note: potency is the fitted concentration of half-maximal effect; nearly all actives have a fitted effect of over 50% in size); conditions: HRE-bla ME-180 viability, CellTiter-Glo luminescence, 17 h; series mostly up to 76.8 µM
Summary of the method: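 ME-180 HRE-bla cells, 2,000/well, 0.5% dialyzed FBS; 5 hr settle, 17 hr compound at 37C/5% CO2; CCF4-AM reporter read first, then CellTiter-Glo luminescence after 30 min RT.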

[7] = qHTS assay to identify small molecule agonists of the retinoic acid receptor (RAR) signaling pathway (AID 1159553); conditions: C3RL4 RARE luciferase reporter, agonist, 6 h; activation: at 73.3 µM (top of the series) unless noted; note: potency is the fitted concentration of half-maximal effect
Summary of the method: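 Luminescence from a RARE-driven luciferase reporter in C3RL4 cells served as the read-out, measured after 30 min with detection reagent at room temperature. Compounds in DMSO were applied for 6 hr at 37 C following overnight seeding.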

[8] = target: Nuclear receptor subfamily 1 group I member 3 (Homo sapiens) (UniProt Q14994); experiment: qHTS assay to identify small molecule antagonists of the constitutive androstane receptor (CAR) signaling pathway (AID 1224838); conditions: HepG2-CYP2B6-hCAR luciferase, CITCO-stimulated, 24 h; series mostly up to 92.4 µM;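 note: HepG2 cells stably expressing hCAR with CYP2B6 luciferase reporter stimulated by CITCO; potency is the fitted concentration of half-maximal effect; nearly all actives have a fitted effect of over 40% in size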
Summary of the method: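 HepG2-CYP2B6-hCAR cells; 4 h pre-incubation; cpd (15 conc) + CITCO 50 nM final; 24 h, 37 C/5% CO2; ONE-Glo, luminescence.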

[9] = qHTS assay to identify small molecule antagonists of the estrogen related receptor signaling pathway with the pleiotropic PPARgamma coactivator (PGC) from Tox21 10K library - cell viability counter screen (AID 1224840; active = well fitted cell-killing curve with a large enough effect in the repeat runs, not every such curve was filed as active; inconclusive = weak or mixed curves, or effect the other way; inactive = no such curve, though single readings can be large or run the other way; note: potency is the fitted concentration of half-maximal effect; nearly all actives have a fitted effect of over 40% in size); conditions: PGC/ERR reporter cells viability, CellTiter-Fluor, 17.5 h; series mostly up to 92.4 µM
Summary of the method: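 PGC/ERR cells, 2,000/well; 6 h pre-incubation 37 C/5% CO2; cpd in DMSO via pin tool; 17.5 h 37 C; CellTiter-Fluor, 30 min; fluorescence.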

[10] = target: Thyrotropin receptor (Homo sapiens) (UniProt P16473); experiment: qHTS assay to identify small molecule agonists of the thyroid stimulating hormone receptor (TSHR) signaling pathway (AID 1224843; calls by dose curve; note: % is set by controls: 0 for no effect and ±100 for the full control effect; nearly all actives have a fitted effect of over 45% in size); conditions: TSHR-HEK293 cells, cAMP HTRF, agonist mode, 30 min; activation: at 92.4 µM (top of the series) unless noted
Summary of the method: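 TSHR-HEK293 cells in agonist mode, 30 min room-temperature step, then cAMP measured by competitive HTRF (cAMP-d2 with anti-cAMP cryptate) after 1 h at room temperature. Tested at 15 concentrations in triplicate.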

[11] = target: Luciferin 4-monooxygenase (Photinus pyralis) (UniProt P08659); experiment: qHTS assay to identify small molecule inhibitors of firefly luciferase (AID 1224835); note: % is set by controls: 0 for no effect and ±100 for the full control effect; nearly all actives have a fitted effect of over 25% in size; conditions: purified P. pyralis luciferase, luminescence inhibition; series mostly up to 115 µM
Summary of the method: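 Biochemical qHTS: compounds run as interplate titrations against purified firefly enzyme, with D-luciferin and ATP each at its KM concentration. Light output recorded by CCD imaging.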
Tags give direction and shape of the fitted curve.

Chain of UniProt P16473 (P16473 whole entry, looked up): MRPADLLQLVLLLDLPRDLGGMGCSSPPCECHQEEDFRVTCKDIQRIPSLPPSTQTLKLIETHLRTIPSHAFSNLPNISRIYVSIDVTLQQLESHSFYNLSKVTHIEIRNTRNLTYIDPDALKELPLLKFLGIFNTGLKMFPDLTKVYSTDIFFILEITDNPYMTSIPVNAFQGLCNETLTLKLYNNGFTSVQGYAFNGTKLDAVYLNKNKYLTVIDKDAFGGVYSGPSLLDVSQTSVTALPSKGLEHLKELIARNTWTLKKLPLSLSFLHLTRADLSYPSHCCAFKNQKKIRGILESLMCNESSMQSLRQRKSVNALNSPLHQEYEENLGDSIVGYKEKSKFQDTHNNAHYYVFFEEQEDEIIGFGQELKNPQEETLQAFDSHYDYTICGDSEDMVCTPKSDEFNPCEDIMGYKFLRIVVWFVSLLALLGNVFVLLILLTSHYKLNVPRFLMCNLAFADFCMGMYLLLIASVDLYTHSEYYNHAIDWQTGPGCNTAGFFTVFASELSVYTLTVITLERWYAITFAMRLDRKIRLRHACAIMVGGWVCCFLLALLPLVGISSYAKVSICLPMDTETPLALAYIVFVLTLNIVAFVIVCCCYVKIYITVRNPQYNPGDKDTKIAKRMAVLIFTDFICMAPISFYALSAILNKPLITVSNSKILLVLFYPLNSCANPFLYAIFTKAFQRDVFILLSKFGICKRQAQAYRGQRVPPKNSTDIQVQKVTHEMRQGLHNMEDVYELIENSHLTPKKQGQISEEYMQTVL
Chain of UniProt P08659 (P08659 whole entry, looked up): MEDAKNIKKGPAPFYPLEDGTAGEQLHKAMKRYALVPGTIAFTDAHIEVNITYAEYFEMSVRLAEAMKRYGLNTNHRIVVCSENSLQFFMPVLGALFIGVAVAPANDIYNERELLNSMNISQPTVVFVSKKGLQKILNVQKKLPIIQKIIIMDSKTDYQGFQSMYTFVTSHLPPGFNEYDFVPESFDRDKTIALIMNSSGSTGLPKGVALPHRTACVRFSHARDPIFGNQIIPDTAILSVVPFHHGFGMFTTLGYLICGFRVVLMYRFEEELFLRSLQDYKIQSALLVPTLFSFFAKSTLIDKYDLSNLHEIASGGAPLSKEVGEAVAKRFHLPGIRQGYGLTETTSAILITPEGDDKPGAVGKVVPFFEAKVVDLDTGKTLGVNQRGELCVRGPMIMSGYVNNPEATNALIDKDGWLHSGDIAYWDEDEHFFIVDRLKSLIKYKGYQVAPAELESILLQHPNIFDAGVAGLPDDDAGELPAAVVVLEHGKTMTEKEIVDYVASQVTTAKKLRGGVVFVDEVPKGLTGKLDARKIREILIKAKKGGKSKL
Chain of UniProt Q14994 (Q14994 whole entry, looked up): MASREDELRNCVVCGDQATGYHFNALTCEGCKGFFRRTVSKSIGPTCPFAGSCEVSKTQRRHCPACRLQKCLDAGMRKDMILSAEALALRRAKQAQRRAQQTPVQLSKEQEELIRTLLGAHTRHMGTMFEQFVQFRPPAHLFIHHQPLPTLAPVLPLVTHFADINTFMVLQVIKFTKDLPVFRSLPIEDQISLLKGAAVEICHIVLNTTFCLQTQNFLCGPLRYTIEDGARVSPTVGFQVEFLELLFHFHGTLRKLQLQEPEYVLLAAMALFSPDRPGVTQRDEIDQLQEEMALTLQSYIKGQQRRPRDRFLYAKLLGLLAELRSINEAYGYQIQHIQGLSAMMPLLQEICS

## CN1CCN(CCC(=O)N2c3ccccc3Sc3ccc(C(F)(F)F)cc32)CC1
[1]
  Potency: inconclusive: 33.5 µM [cytotoxic, partial curve, poor fit]
[2]
  Potency: active: 29.8 µM
[3]
  Potency: active: 29.8 µM
[4]
  Potency: inconclusive: 29.8 µM [cytotoxic, partial curve]
[5]
  Potency: inconclusive: 33.5 µM [single point]
[6]
  Potency: inconclusive: 13.4 µM [cytotoxic, partial curve]

## Clc1ccc2nsnc2c1NC1=NCCN1
[1]
  Potency: inactive

## C[C@@H]1CN(CCCn2c3ccccc3c3ccccc32)C[C@H](C)N1
[1]
  Potency: inconclusive: 33.5 µM [cytotoxic, partial curve, poor fit]
[2]
  Potency: active: 33.5 µM
[7]
  Potency: inconclusive: 29.8 µM [inhibitor, partial curve]
[8]
  Potency: inconclusive: 33.5 µM [inhibitor, single point]
[9]
  Potency: active: 26.6 µM
[5]
  Potency: inconclusive: 33.5 µM [falling, single point]
[10]
  activation: inconclusive: -16.4% [at 42.5 µM]
[6]
  Potency: active: 21.3 µM

## C[n+]1c2cc(N)ccc2cc2ccc(N)cc21 (tested in a mixture with another compound)
[1]
  Potency: inconclusive: 33.5 µM [rising, single point]
[2]
  Potency: active: 23.7 µM
[3]
  Potency: inconclusive: 29.8 µM [rising, partial curve]
[11]
  Potency: inactive
[9]
  Potency: inconclusive: 29.8 µM [rising, partial curve]
[10]
  activation: inconclusive: -23% [at 42.5 µM]
